{"source": "paper PMC12624777", "about": "“Degradation of CaMKII is stimulated by its active conformation” (The Journal of Biological Chemistry, 2025)", "molecular_target": "the molecule itself", "assay": "SEC; analytical gel filtration, Superose 6 10/300 GL, 50 mM Tris pH 7.5, 150 mM NaCl, 1 mM TCEP, 0.4 ml/min; cleared HEK293T lysate injected without additional purification; detected by TMR-Star fluorescence; size estimated from Kav against MW standards", "data": [{"protein": "SNAP::dCaMKII WT (Drosophila CaMKII, PC isoform, with an N-terminal SNAP-tag) (enzyme, TMR-Star (fluorescent SNAP-ligand) on the SNAP-tag, numbers count on: the PC isoform of 490 aa; Sizes predominantly as a dodecamer by gel filtration; also called WT dCaMKII; fly CaMKII; source: HEK293T, transfected, in cleared lysate; copies: 12) MAAPAACTRFSDNYDIKEELGKGAFSIVKRCVQKSTGFEFAAKIINTKKLTARDFQKLEREARICRKLHHPNIVRLHDSIQEENYHYLVFDLVTGGELFEDIVAREFYSEADASHCIQQILESVNHCHQNGVVHRDLKPENLLLASKAKGAAVKLADFGLAIEVQGDHQAWFGFAGTPGYLSPEVLKKEPYGKSVDIWACGVILYILLVGYPPFWDEDQHRLYSQIKAGAYDYPSPEWDTVTPEAKNLINQMLTVNPNKRITAAEALKHPWICQRERVASVVHRQETVDCLKK[skipping about 20 residues]SRSMITKKGEGSQVKESTDSSSTTLEDDDIKAARRQEIIKITEQLIEAINSGDFDGYTKICDPHLTAFEPEALGNLVEGIDFHKFYFENVLGKNCKAINTTILNPHVHLLGEEAACIAYVRLTQYIDKQGHAHTHQSEETRVWHKRDNKWQNVHFHRSASAKISGATTFDFIPQK", "values": [{"measurement": "stoichiometry N", "value": 12}]}, {"protein": "SNAP::dCaMKII F400A (Drosophila CaMKII hub mutant with an N-terminal SNAP-tag) (enzyme, TMR-Star (fluorescent SNAP-ligand) on the SNAP-tag, numbers count on: the PC isoform of 490 aa; Essentially all dimer by gel filtration of crude extract; also called fly hub mutant; dCaMKII hub mutant; source: HEK293T, transfected, in cleared lysate) MAAPAACTRFSDNYDIKEELGKGAFSIVKRCVQKSTGFEFAAKIINTKKLTARDFQKLEREARICRKLHHPNIVRLHDSIQEENYHYLVFDLVTGGELFEDIVAREFYSEADASHCIQQILESVNHCHQNGVVHRDLKPENLLLASKAKGAAVKLADFGLAIEVQGDHQAWFGFAGTPGYLSPEVLKKEPYGKSVDIWACGVILYILLVGYPPFWDEDQHRLYSQIKAGAYDYPSPEWDTVTPEAKNLINQMLTVNPNKRITAAEALKHPWICQRERVASVVHRQETVDCLKK[skipping about 20 residues]SRSMITKKGEGSQVKESTDSSSTTLEDDDIKAARRQEIIKITEQLIEAINSGDFDGYTKICDPHLTAFEPEALGNLVEGIDFHKAYFENVLGKNCKAINTTILNPHVHLLGEEAACIAYVRLTQYIDKQGHAHTHQSEETRVWHKRDNKWQNVHFHRSASAKISGATTFDFIPQK", "values": [{"measurement": "stoichiometry N", "value": 2}]}]}
